According to PubChem BioAssay AID924 (National Center for Advancing Translational Sciences (NCATS), 2007):
Screen size: about 130,000 compounds; about 1,200 (0.92%) were called active. The inconclusive results got no clear call from the source; some entries with a clear call stand among them for comparison. Calls come from the whole dose curve; as a rule, active = well fitted cell-killing curve with a large enough effect; inconclusive = small, poorly fitted or top-dose-only effect; inactive = no such curve, though single readings can be large or run the other way. Where the call is inconclusive, the potency comes from a doubtful curve fit.

Experiment: qHTS Screen for Compounds that Selectively Target Cancer Cells with p53 Mutations: Cytotoxicity of p53ts Cells at the Permissive Temperature; note: nearly all actives have a fitted effect of over 55% in size;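 for activity change, negative = cytotoxicity: 0% = DMSO and -100% = full killing by reference compound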
Conditions: H1299-p53A138V at 32C, ATP luminescence viability, 24 h; activity change, negative = cytotoxicity: at 46.1 µM (top of the series)
How it was run: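 Cells: H1299 p53ts (A138V), 600/well, pre-incubated 16–30 h at 37C. Cpd up to 46 uM, 24 h, 32C. Readout: ATPlite luminescence, 20 min RT. Normalization: DMSO vs tamoxifen 100 uM. AC50 by Hill equation.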
Potency is the fitted concentration of half-maximal effect; tags give direction and shape of the fitted curve.

With `Cc1cc(S(=O)(=O)Nc2ccc3oc4c(c3c2)CCCC4)ccc1Cl` as the compound, how does the Potency read?
Its Potency is inconclusive: 31.6 µM [cytotoxic, single point].

With `Cc1nc2cc3nc(C)sc3cc2s1` as the compound, how does the Potency read?
The Potency was inconclusive: 12.6 µM [cytotoxic, partial curve].

With `Cc1ccc(-c2noc(-c3cccs3)n2)cc1` as the compound, how does the Potency read?
Its Potency is inconclusive: 10 µM [cytotoxic, partial curve].

For `Cc1ccccc1Nc1c(-c2c[nH]c3ccccc23)nc2cccc(C)n12`, which Potency is on record?
Its Potency is inconclusive: 7.94 µM [cytotoxic, partial curve, poor fit].

With `Cc1ccc2nc3c(c(Nc4ccc(C)c(C)c4)c2c1)CCC3` as the compound, how does the Potency read?
The Potency was inconclusive: 25.1 µM [cytotoxic, single point].

Which Potency does the source give for `COCCCNC(=O)c1ccc(-n2c(-c3ccccc3)cc3c2CCCCC3)cc1` here?
Its Potency is inconclusive: 15.8 µM [cytotoxic, single point].

Which Potency does the source give for `Cc1ccc(C2c3c(oc4ccccc4c3=O)C(=O)N2c2nnc(C(C)C)s2)o1` (centres undefined) here?
The Potency was inconclusive: 20 µM [cytotoxic, single point].

Which Potency does the source give for `COc1cccc(CNC(=O)c2cc(=O)[nH]c3ccc(S(=O)(=O)N4CCCC4)cc23)c1` here?
Its Potency is “inactive”.

For `COC(=O)CCC(=O)COc1ccc(OC)cc1C#N`, which Potency is on record?
The Potency was inconclusive: 12.6 µM [cytotoxic, partial curve].

Which activity change, negative = cytotoxicity does the source give for `CN(CCO)Cc1ncccc1O` here?
The activity change, negative = cytotoxicity was inactive: -6.77% [at 9.22 µM].

For `COc1ccc(NC(=O)Nc2cccs2)cc1OC`, which Potency is on record?
The Potency was inconclusive: 12.6 µM [cytotoxic, partial curve].

For `CCOC(=O)N1CCN(C(=O)CSc2nnc(-c3ccc(C(C)(C)C)cc3)o2)CC1`, which Potency is on record?
Its Potency is inconclusive: 10 µM [cytotoxic, partial curve].

For `COc1ccc(CCNC(=O)CCn2c(SCC#N)nc3ccccc3c2=O)cc1OC`, which Potency is on record?
The Potency was inconclusive: 31.6 µM [cytotoxic, single point].

For `OCc1nc2ccccc2n1CC(O)Cn1ccc2ccccc21` (centres undefined), which Potency is on record?
Its Potency is “inactive”.

Which Potency does the source give for `CC(=O)Nc1ccc(-c2nc(C)c(C(C)=O)n2O)cc1` here?
The Potency was inconclusive: 12.6 µM [cytotoxic, partial curve].

With `Cc1ccc(S(=O)(=O)c2nc(-c3cccs3)oc2SCC(=O)Nc2cc(C)cc(C)c2)cc1` as the compound, how does the Potency read?
Its Potency is inconclusive: 15.8 µM [cytotoxic, single point].

For `Nc1nc(SCc2ccc3c(c2)OCCO3)n[nH]1`, which Potency is on record?
Its Potency is inconclusive: 20 µM [cytotoxic, single point].

For `CCCCNc1oc(-c2ccc(COc3ccccc3C)o2)nc1C#N`, which Potency is on record?
Its Potency is inconclusive: 5.01 µM [cytotoxic, full curve, poor fit].

With `Cn1ccc2cc(NC(=O)Nc3cccnc3)ccc21` as the compound, how does the Potency read?
The Potency was inconclusive: 25.1 µM [cytotoxic, partial curve].

For `O=[N+]([O-])c1cc(-c2nc(-c3ccccc3)no2)ccc1NCc1cccnc1`, which Potency is on record?
Its Potency is “inactive”.

With `CCOc1ccc(-c2cnc(NCc3cccc(Cl)c3)n2C)cc1` as the compound, how does the Potency read?
Its Potency is “inactive”.

For `N/C(CC/C(N)=N/O)=N\O`, which activity change, negative = cytotoxicity is on record?
The activity change, negative = cytotoxicity was inactive: 2.88% [at 9.22 µM].

For `Clc1ccc2nc(-c3ccccc3)[nH]c2c1`, which Potency is on record?
Its Potency is active: 10 µM.

Which Potency does the source give for `O=C(OCC1OC(OC(=O)c2cc(O)c(O)c(OC(=O)c3cc(O)c(O)c(O)c3)c2)[C@@H](OC(=O)c2cc(O)c(O)c(OC(=O)c3cc(O)c(O)c(O)c3)c2)C(OC(=O)c2cc(O)c(O)c(OC(=O)c3cc(O)c(O)c(O)c3)c2)C1OC(=O)c1cc(O)c(O)c(OC(=O)c2cc(O)c(O)c(O)c2)c1)c1cc(O)c(O)c(OC(=O)c2cc(O)c(O)c(O)c2)c1` (some centres undefined) here?
Its Potency is active: 10 µM.

With `O=C(CCC(=O)N1Cc2ccccc2Oc2ncccc21)NCc1ccccc1Cl` as the compound, how does the Potency read?
The Potency was “inactive”.

For `CCCCN(C)CCNC(=O)C1CCN(c2nc3ccc(CC)cc3s2)CC1`, which Potency is on record?
The Potency was active: 10 µM.

Which Potency does the source give for `O=C(Nc1ccc2c(c1)OCCO2)c1cnc2n(c1=O)CCS2` here?
The Potency was inconclusive: 20 µM [cytotoxic, single point].

With `CCc1nc(SCC(=O)N2CCN(c3ccccc3)CC2)c2c(=O)n(C)c(=O)n(C)c2n1` as the compound, how does the Potency read?
Its Potency is “inactive”.

Which Potency does the source give for `CC(=O)Nc1ccc(N/C=C/C(=O)c2ccc(C)o2)cc1` here?
Its Potency is “inactive”.

With `O=C(CSc1nc2cc3ccccc3cc2[nH]1)Nc1cccc(C(F)(F)F)c1` as the compound, how does the Potency read?
The Potency was inconclusive: 31.6 µM [cytotoxic, single point].

With `Fc1ccc(-c2cc(-c3nc(-c4cccc(Cl)c4)no3)[nH]n2)cc1` as the compound, how does the Potency read?
Its Potency is “inactive”.

Which Potency does the source give for `CCOC(=O)c1c(N)sc(C(=O)Nc2ccc3c(c2)OCO3)c1C` here?
The Potency was active: 3.98 µM.

For `CC(C)c1ccc(NC(=O)C2CCCN(S(=O)(=O)c3ccc(Br)s3)C2)cc1` (centres undefined), which Potency is on record?
The Potency was “inactive”.

For `CCc1ccc(NS(=O)(=O)c2ccc3[nH]cc(C(=O)NC4CCCC4)c(=O)c3c2)cc1`, which Potency is on record?
Its Potency is inconclusive: 20 µM [cytotoxic, single point].

For `Cc1cc(C)n(-c2nnc(C)n2/N=C/c2cc(Br)ccc2OCc2ccccc2)n1`, which Potency is on record?
The Potency was inconclusive: 31.6 µM [cytotoxic, single point].

Which Potency does the source give for `COc1ccc(C2C(C(=O)Nc3ccccc3)=C(C)Nc3nc(-c4ccccc4)nn32)cc1OC` (centres undefined) here?
The Potency was inconclusive: 28.2 µM [cytotoxic, single point].

For `CCCCCNC(=O)c1cc(S(=O)(=O)N2CCCCC2)ccc1F`, which Potency is on record?
Its Potency is inconclusive: 31.6 µM [cytotoxic, single point].

For `Cc1ccccc1Nc1c(-c2ccsc2)nc2c(C)cccn12`, which Potency is on record?
Its Potency is inconclusive: 15.8 µM [cytotoxic, single point].

For `O=C(COc1ccc(Cl)cc1)Nc1ccccc1C(=O)NCc1ccco1`, which Potency is on record?
The Potency was inconclusive: 15.8 µM [cytotoxic, single point].

For `CN(C(=O)c1cc2sccc2n1C)C1CCCCC1`, which Potency is on record?
Its Potency is inconclusive: 10 µM [cytotoxic, single point].

Which Potency does the source give for `O=C1C(C=NCC2CCCO2)=C(O)c2ccccc21` (centres undefined) here?
The Potency was inconclusive: 12.6 µM [cytotoxic, partial curve].

Which Potency does the source give for `Nc1ncnc2c1c(-c1ccc(Oc3ccccc3)cc1)cn2C1CCCC1` here?
The Potency was inconclusive: 25.1 µM [cytotoxic, single point].

Which Potency does the source give for `Cc1ccc(C(=O)c2oc3ccccc3c2NC(=O)c2nc(S(C)(=O)=O)ncc2Cl)cc1F` here?
Its Potency is “inactive”.

For `Cc1csc2nc(-c3cccc(NC(=O)c4cccc(F)c4)c3)cn12`, which Potency is on record?
Its Potency is inconclusive: 11.2 µM [cytotoxic, partial curve].
